Test results as given in PMC6759578.
These are yes or no findings as the source states them, for the method shown. In cells and extracts the contact can be indirect.

Amino acid sequences for entries named in this document (tags omitted).
UniProt Q8IUC6: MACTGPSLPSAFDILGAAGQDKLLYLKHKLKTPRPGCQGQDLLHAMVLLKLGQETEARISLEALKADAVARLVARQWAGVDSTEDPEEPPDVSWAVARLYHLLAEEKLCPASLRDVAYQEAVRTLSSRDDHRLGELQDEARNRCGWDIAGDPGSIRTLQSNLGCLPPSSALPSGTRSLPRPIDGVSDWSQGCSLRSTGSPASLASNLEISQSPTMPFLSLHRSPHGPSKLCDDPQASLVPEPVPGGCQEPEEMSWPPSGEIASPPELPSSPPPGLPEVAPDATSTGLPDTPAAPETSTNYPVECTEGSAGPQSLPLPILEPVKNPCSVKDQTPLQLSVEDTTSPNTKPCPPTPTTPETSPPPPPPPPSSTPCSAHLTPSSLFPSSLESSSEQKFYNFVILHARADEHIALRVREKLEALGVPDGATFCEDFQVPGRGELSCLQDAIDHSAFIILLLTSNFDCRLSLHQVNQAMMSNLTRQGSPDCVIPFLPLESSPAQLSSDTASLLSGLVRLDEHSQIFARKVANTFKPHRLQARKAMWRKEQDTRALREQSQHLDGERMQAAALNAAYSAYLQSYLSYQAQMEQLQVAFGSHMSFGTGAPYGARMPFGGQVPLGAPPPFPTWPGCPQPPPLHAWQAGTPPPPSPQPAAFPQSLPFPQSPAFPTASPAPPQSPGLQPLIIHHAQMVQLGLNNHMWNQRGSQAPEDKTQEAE
UniProt Q7Z434: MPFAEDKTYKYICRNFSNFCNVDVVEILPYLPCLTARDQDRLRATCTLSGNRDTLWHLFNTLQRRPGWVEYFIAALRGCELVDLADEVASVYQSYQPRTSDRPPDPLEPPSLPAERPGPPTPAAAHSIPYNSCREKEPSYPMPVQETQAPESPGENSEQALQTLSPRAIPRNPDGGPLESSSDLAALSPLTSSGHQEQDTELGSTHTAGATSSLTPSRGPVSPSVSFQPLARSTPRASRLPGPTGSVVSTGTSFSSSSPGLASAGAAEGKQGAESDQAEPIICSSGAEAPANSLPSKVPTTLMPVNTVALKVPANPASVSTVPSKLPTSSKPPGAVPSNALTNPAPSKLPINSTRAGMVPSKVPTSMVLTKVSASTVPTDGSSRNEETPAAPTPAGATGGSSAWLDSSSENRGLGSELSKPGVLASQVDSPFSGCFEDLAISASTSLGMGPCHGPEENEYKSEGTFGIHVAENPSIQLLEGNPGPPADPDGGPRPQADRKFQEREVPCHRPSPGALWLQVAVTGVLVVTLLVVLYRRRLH

Molecular target: FLAG-tagged TRIF (expressed in A549 cells) (UniProt Q8IUC6)
Assay: co-IP; A549 cells transfected with FLAG-tagged TRIF for 24 h, with or without poly(I:C) stimulation; anti-FLAG and Protein G beads; blotted with DDX23 and MAVS antibodies

## endogenous MAVS (from UniProt Q7Z434 1-540)
  binding: no binding
